# Assay results: PubChem BioAssay AID1508642 (National Center for Advancing Translational Sciences (NCATS), 2021)
# Hit rate of the full screen: of about 43,000 compounds, about 200 (0.47%) were called active. About 12% were inconclusive and are not listed. The call rests on the fitted dose curve; in most records, active means well fitted cell-killing curve with a large enough effect; inconclusive means small, poorly fitted or top-dose-only effect, or effect the other way; inactive means flat fitted curve, though single readings scatter. The list shows a part of the results.
# Assay: Cell viability qHTS assay in S16 Pmp22-F2sN cells; further: nearly all actives have a fitted effect of over 65% in size
# Conditions: S16 Pmp22-F2sN Schwann cells (luciferase reporters placed in the Pmp22 gene) viability, CellTiter-Glo, 24 h; series mostly up to 57.5 µM; activity change, negative = cytotoxicity: at the top concentration
# Summary of the method: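 Seed 500-1,000 S16 Pmp22-F2sN cells per well in phenol-red-free DMEM with 10% heat-inactivated FBS; pin-add 23 nL compound; incubate 24 h at 37C; add CellTiter-Glo, wait 15 min protected from light; read luminescence.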
# On the % scale 0 is the no-effect control and ±100 the full control effect; potency means the concentration at half of the fitted maximal effect.
SMILES,"activity change, negative = cytotoxicity",Potency
COc1ccc(Cl)cc1Nc1nc2ccc(C(=O)c3ccccc3)cc2n2cnnc12,inactive: 10.8%,–
COc1ccc(Br)cc1CNC(=O)c1cnc2sc(N3CCCC3)nn2c1=O,inactive: -0.59%,–
CN1CCN(C(CNC(=O)c2ccccc2F)c2ccc3c(c2)OCO3)CC1 (stereo not drawn),inactive: 19.5%,–
O=C(Cn1c(=O)nc(-c2ccccc2)c2ccccc21)NCCc1ccc(Cl)cc1,inactive: 8.15%,–
COc1ccc(C(=O)N(Cc2cc(OC)c(OC)c(OC)c2)c2ccccn2)cc1,inactive: 12.9%,–
Cc1ccc(C)c(NC(=O)Cn2nnc(C(=O)NCc3ccccc3Cl)c2N)c1,–,active: 14.1 µM
Fc1ccc(-n2ncc3c(NCCCn4ccnc4)ncnc32)cc1,inactive: -13%,–
COc1cccc(C2NC(=O)c3n[nH]c(-c4cccs4)c32)c1 (stereo not drawn),inactive: 0.567%,–
CCCCN(CC)CCNC(=O)CCn1cnc2onc(-c3ccc(F)cc3)c2c1=O,inactive: -18.3%,–
COc1ccc(NC(=O)c2sc3nc(-c4cc5ccc(OC)cc5oc4=O)[nH]c(=O)c3c2C)cc1,inactive: 11.6%,–
Cc1cccc(-n2cc(-c3ccccc3)c3c(N4CCC(C)CC4)ncnc32)c1,inactive: 10.5%,–
COc1cc(NC(=O)NCC2CCN(Cc3ccccc3Cl)CC2)cc(OC)c1OC,inactive: 0.604%,–
Cc1cc2[nH]c(=O)c(=O)[nH]c2cc1S(=O)(=O)N1CCN(c2cccc(C(F)(F)F)c2)CC1,inactive: 20.1%,–
COc1ccc(OC)c(CCNC(=O)CCc2cn(Cc3cc(C)ccc3C)c3ccccc23)c1,inactive: -14.3%,–
O=C(Cn1c(=O)c2cccn2c2ccc(F)cc21)N1CCN(c2ccccc2F)CC1,inactive: 5.91%,–
Cc1ccc(Cl)cc1NS(=O)(=O)c1ccc2c(c1)NC(=O)CCS2,inactive: -0.191%,–
CCCn1c(=O)c2sccc2n2c(CCCC(=O)NC3CCC(C)CC3)nnc12 (stereo not drawn),inactive: 2.93%,–
CCCCOc1ccc(C(=O)NCCc2csc(-c3cccc(F)c3)n2)cc1,inactive: 18.9%,–
Cc1ccc(-n2ncc(C(=O)NCc3cccs3)c2C2CCN(C(=O)OC(C)(C)C)CC2)cc1,inactive: -17.8%,–
Cc1ccc(CNC(=O)CN2C(=O)CCn3nc(-c4ccccc4)cc32)cc1,inactive: 9.46%,–
COc1ccccc1NC(=O)C(C)Sc1nnc2ccc3ccccc3n12 (stereo not drawn),inactive: 10.2%,–
CCc1cccc2c(-c3ccccc3)nc(SCC(=O)Nc3ccccc3OC)nc12,inactive: -3.2%,–
COc1ccc(CNC(=O)C(C)Sc2nc(-c3ccccc3)cc(C(F)(F)F)n2)cc1 (stereo not drawn),inactive: -10.1%,–
COc1ccc(OCC(=O)N2CCC(c3nc4ccccc4s3)CC2)cc1,inactive: -20.1%,–

SMILES,"activity change, negative = cytotoxicity",Potency
CCCCOc1ccc(C(=O)Nc2ccc3oc(-c4cccnc4)nc3c2)cc1,inactive: 0.251%,–
O=C(NC1CCCC1)c1ccc(CSc2nc3ccncc3n2Cc2cccc(F)c2)cc1,inactive: -22.7%,–
CCOc1cc(C(=O)NCc2ccc3c(c2)CCN3C(=O)c2ccc(F)cc2)cc(OCC)c1OCC,inactive: -5.56%,–
CCc1ccccc1NC(=O)C1CCN(S(=O)(=O)c2ccccc2)CC1,inactive: 1.93%,–
Cc1cccc(C(=O)Nc2ccc(-c3nc4ncccc4o3)cc2C)c1,inactive: 9.39%,–
CC(C)OCCCNC(=O)c1cn(C)c2ccc(S(=O)(=O)N3CCCCCC3)cc2c1=O,inactive: -1.23%,–
Cc1cccc(S(=O)(=O)c2cn(Cc3ccccc3)c3cc(N4CCOCC4)c(F)cc3c2=O)c1,inactive: -25.4%,–
Cc1c2cnn(CC(=O)NCC(C)c3ccccc3)c(=O)c2c(C)n1Cc1cccc(Cl)c1 (stereo not drawn),inactive: 1.01%,–
Cc1ccc(CNC(=O)c2ccc3c(c2)c(C)c(C)n3Cc2ccccc2)o1,inactive: -12.1%,–
O=C(COc1ccccc1Cl)OCc1cc(=O)n2nc(C3CCCCC3)sc2n1,inactive: -4.17%,–
COc1cccc(C(=O)NCCc2csc(-c3ccc(Cl)cc3)n2)c1,inactive: -4.46%,–
Cc1ccc(NC(=O)C2CCN(S(=O)(=O)c3ccc4[nH]c5c(c4c3)CCCCC5)CC2)cc1,inactive: -5.4%,–
COc1ccccc1N1CCN(c2ncnc3onc(-c4ccc(F)cc4)c23)CC1,inactive: 0.0297%,–
COC(=O)c1c(NC(=O)CCCOc2ccc(C(C)(C)C)cc2)sc2c1C(C(=O)OC)CC2 (stereo not drawn),inactive: -1.84%,–
COc1ccc(N2CCN(C(=O)CCn3c(=O)[nH]c4cc(OC)c(OC)cc4c3=O)CC2)cc1,inactive: -4.41%,–
CC1CN(C(=O)N2CCC(C(=O)NCc3cccs3)CC2)c2cc(Cl)ccc2O1 (stereo not drawn),inactive: -4.92%,–
Cc1ccc(C)c(NC(=O)C2CCCN(c3nc4ccccc4s3)C2)c1 (stereo not drawn),inactive: 1.91%,–
CCOC(=O)CSC1=Nc2ccccc2C2=NC(CCC(=O)NCc3ccc(F)cc3)C(=O)N12 (stereo not drawn),inactive: -2.05%,–
O=C(NCc1cccc(F)c1)C1CCCN(C(=O)N2CCOc3ccccc32)C1 (stereo not drawn),inactive: -3.59%,–
COc1ccc(OC)c(CNC(=O)c2ccc(C)c(NC(=O)c3nsc4ccccc34)c2)c1,inactive: -0.512%,–
Cc1ccc(Cn2c(CNS(=O)(=O)c3cccc([N+](=O)[O-])c3)nc3cccnc32)cc1,inactive: -9.74%,–
CCOc1ccc(OCC)c(NS(=O)(=O)c2cc(-c3cnc(C)o3)ccc2OC)c1,inactive: -27.6%,–
COc1ccc(-c2cc(C)no2)cc1S(=O)(=O)Nc1c(C)cc(C)cc1C,inactive: -14.6%,–
COC(=O)c1cc2sc(Cl)cc2n1Cc1c(C)cc(C)cc1C,inactive: 0.887%,–
